The values below come from ChEMBL document CHEMBL4888484, “Replenishing the malaria drug discovery pipeline: Screening and hit evaluation of the MMV Hit Generation Library 1 (HGL1) against asexual blood stage Plasmodium falciparum ,using a nano luciferase reporter read-out” (2022).

The campaign covered roughly 150,000 compounds. About 540 (0.36%) showed an effect of 50% or more. The list shows a part of the results.

This test deals with Plasmodium falciparum. Put plainly: Primary screen in NF54 nanoGlo assay, in single point, at 2uM, 72h; a lower Z score goes with more inhibition. It is filed as functional, Erythrocyte. To be noted: timepoint 72 hour.
By % Inhibition is commonly meant the change of the read-out against control, counted positive when it falls. Regarding `Cc1cccc(N2CCC(N3CCc4nocc4C3)CC2)c1`, the “% Inhibition” value is -18% and the Z score was 2.09.

Turning to `CC(C)NC(=O)[C@@H]1C[C@@H](N)CN1C(=O)Cc1csc(-c2ccccc2)n1`, the “% Inhibition” value amounted to 2% and the Z score is -0.41.

As to `O=C(c1ccccc1)N1c2ccccc2C=C[C@H]1c1c[nH]c2ccccc12`, the “% Inhibition” value was 4% and the Z score was -0.58.

`CCOC(=O)[C@H]1CCCN(CC(=O)N(C)C)C1`: the “% Inhibition” value is recorded as -2% and the Z score is 0.22.

Take `Cc1ccc(S(=O)(=O)N2CCC3(CC2)C(=O)N(CC(=O)NC[C@H]2CCCO2)CN3c2ccccc2)cc1`: the “% Inhibition” value was -3% and the Z score is given as 0.47.

With `CCc1ccc(Cn2nc(CC(N)=O)nc2-c2ncccc2C)cc1`, the “% Inhibition” value is recorded as -6% and the Z score was 1.12.

Regarding `CCCNC(=O)O[C@@H]1CC[C@]2(C)[C@H](CC[C@@H](O)[C@H]2CC(=O)N2CCCC2)[C@]1(C)CO`, the “% Inhibition” value was -9% and the Z score was determined as 1.33.

As to `O=C(c1cc(-c2ccccc2)n[nH]1)N1CCC(Oc2cccnn2)CC1`, the “% Inhibition” value is -13% and the Z score was found to be 2.48.

On to `CCc1ccccc1S(=O)(=O)N1CCc2[nH]cnc2C1`, for which the “% Inhibition” value is given as -16% and the Z score was determined as 1.81.

`NC(=O)N1CCCN(C(=O)c2ccncc2C(F)(F)F)CC1`: the “% Inhibition” value is given as -4% and the Z score stood at 0.56.

Consider `Cn1cc([C@H](NS(=O)(=O)c2ccco2)c2ccc(F)cc2)cn1`, for which the “% Inhibition” value is given as -10% and the Z score came out at 1.47.

`COc1ccc(-c2noc([C@@H]3CCCN3C(=O)Nc3ccc(F)c(Cl)c3)n2)cc1`: the “% Inhibition” value is given as -1% and the Z score was 0.2.

Consider `O=C(c1cccc(Cl)c1)N(CCS(=O)(=O)N1CCNCC1)C1CCCC1`, for which the “% Inhibition” value is -10% and the Z score was 1.09.

Consider `O=C(NC1CC1)c1cccc(C(=O)N2CCN(c3c(F)cccc3F)CC2)c1`, for which the “% Inhibition” value was -8% and the Z score came to 0.94.

For the molecule `CC1CN(S(=O)(=O)c2ccc3c(c2)Cc2cc(S(=O)(=O)N4CC(C)OC(C)C4)ccc2-3)CC(C)O1` (centres undefined), the “% Inhibition” value is -12% and the Z score is given as 1.53.

`CN(C)Cc1ccc(C(=O)N2CCOCC(F)(F)C2)cn1`: the “% Inhibition” value was -11% and the Z score amounted to 1.36.

Turning to `Cn1nc([C@H]2CCCOC2)cc1NC(=O)NCC(F)(F)c1cccc(F)c1`, the “% Inhibition” value stood at 10% and the Z score is recorded as -1.64.

For the molecule `CC(C)C(NC(=O)c1c(Cl)cccc1Cl)C(C)C`, the “% Inhibition” value was -7% and the Z score stood at 0.92.

Turning to `COc1ccc(C(=O)N2CCNC(=O)[C@@H]2Cc2ccccc2)cc1F`, the “% Inhibition” value is -1% and the Z score was determined as 0.3.

As for `Cc1nc2c(C)cccc2cc1C(=O)NC[C@H]1CN(S(C)(=O)=O)CCO1`, the “% Inhibition” value is reported as 15% and the Z score is on record as -1.92.

Regarding `CCC(CC)(CNC(=NC)NCc1nncn1C)c1ccccc1`, the “% Inhibition” value was -8% and the Z score is on record as 1.4.

Regarding `Cc1noc2ncc(C(=O)N(CCc3cccs3)Cc3cccs3)cc12`, the “% Inhibition” value was -6% and the Z score is 0.78.

Take `CCN(c1cccc(C)c1)c1nc(-c2ccccc2)ncc1C(=O)N1CCN(c2ccccc2F)CC1`: the “% Inhibition” value is reported as -12% and the Z score worked out at 2.13.

As for `COc1ccc([C@@]2(C)NC(=O)N(CC(=O)NC3CCCC3)C2=O)cc1OC`, the “% Inhibition” value is listed as -2% and the Z score stood at 0.38.

For the molecule `CCC1(C)CCCN(CC(C#N)CCC#N)CC1` (centres undefined), the “% Inhibition” value is -9% and the Z score was 1.26.

Turning to `C[C@@H](CCN1CCC(=O)N(Cc2ccncc2)CC1)c1ccccc1`, the “% Inhibition” value is on record as -1% and the Z score stood at 0.14.

With `O=C(NC1CCN(c2cnsn2)CC1)c1ccc(F)c(F)c1`, the “% Inhibition” value is reported as -25% and the Z score came out at 3.17.

Take `O=C(Cn1ccn2nc3c(c2c1=O)CCCC3)N1CCCc2ccccc21`: the “% Inhibition” value was -3% and the Z score came out at 0.49.

Consider `O=C(Nc1ccc(N2CCCN(Cc3ccc(F)c(F)c3)C2=O)cc1)c1ccccc1`, for which the “% Inhibition” value is on record as -7% and the Z score was 0.91.

Take `Nc1nc(C2CC(O)C2)cc(N2CCN(c3ccc(F)cc3)CC2)n1` (centres undefined): the “% Inhibition” value is on record as 1% and the Z score was -0.16.

Consider `CN(CC(=O)N[C@H]1CCCCNC1=O)c1ccccc1Oc1ccccc1`, for which the “% Inhibition” value is -14% and the Z score is 1.82.

`Cc1cc(C)n(-c2cncc(N[C@H]3CCc4nc(C)nn4C3)n2)n1`: the “% Inhibition” value was found to be 4% and the Z score is -0.74.

For `C#CCCC1(CCC(=O)N2CC(C3CCCCC3)CC2C(=O)O)N=N1` (centres undefined), the “% Inhibition” value is -1% and the Z score came out at 0.07.

Take `Cc1ccc(-c2ocnc2C(=O)Nc2cccc(C)c2C)o1`: the “% Inhibition” value came to 2% and the Z score is -0.22.

As for `O=C(c1ccncc1)N1CC[C@H](c2nc3ccccc3o2)C1`, the “% Inhibition” value is 18% and the Z score is reported as -2.11.

`Cc1cnc(C(C)NC(=O)C2COc3ccc(Br)cc32)o1` (centres undefined): the “% Inhibition” value is listed as -10% and the Z score came to 1.79.

Consider `CCc1sc(N(C(=O)Cc2ccccc2)c2ccccc2Cl)nc1-c1ccccc1`, for which the “% Inhibition” value is -11% and the Z score is recorded as 1.44.

For `Cc1ccc2[nH]c(CN[C@@H](C)CNS(=O)(=O)C3CC3)nc2c1`, the “% Inhibition” value was -1% and the Z score is recorded as 0.21.

For `CCOC(=O)N1CCC(N2CCOc3c(cc(-c4ccc(OC)nn4)cc3OC)C2)CC1`, the “% Inhibition” value is reported as -7% and the Z score turned out to be 0.98.

Regarding `CCn1nnc2cc(C(=O)N3CCc4cc(OC)c(OC)cc4C3)ccc21`, the “% Inhibition” value is recorded as -4% and the Z score is given as 0.52.

Take `CCCOc1ccc([C@H](C)NC(=O)NCCCN(C)C)cc1OCCC`: the “% Inhibition” value was -6% and the Z score amounted to 0.62.

In the case of `CCCc1nc(C(=O)N[C@@H]2c3ccccc3C3(CCNCC3)[C@H]2O)cs1`, the “% Inhibition” value was -4% and the Z score was 0.85.

For the molecule `CC1CC(NS(=O)(=O)CCC2CCCO2)CN1c1ccccc1` (centres undefined), the “% Inhibition” value is -3% and the Z score is given as 0.56.

With `Cc1ccc(S(=O)(=O)N2CCN(C(=O)NCCc3cn[nH]c3)CC2)cc1`, the “% Inhibition” value is -5% and the Z score is given as 0.63.

Take `c1ccc(-n2cc(-c3noc(-c4ccc5ccccc5n4)n3)nn2)cc1`: the “% Inhibition” value is -19% and the Z score worked out at 3.68.

For the molecule `Cc1cc(C(=O)N(C)CC[C@H](N)C(C)C)n(C)n1`, the “% Inhibition” value is reported as -21% and the Z score amounted to 2.68.

As for `Cc1cccc(N[C@@H](C)C(=O)NC(C)(C)C)c1`, the “% Inhibition” value is given as -8% and the Z score is on record as 1.39.

On to `CCN(CC)S(=O)(=O)CCNC(=O)[C@@H](c1cc(Cl)cc(Cl)c1)N(C)C`, for which the “% Inhibition” value is recorded as -1% and the Z score is given as 0.19.

As for `CCCn1nnc2cc(S(=O)(=O)N3CCCC[C@H]3C(=O)NCCCN3CCOCC3)ccc21`, the “% Inhibition” value is recorded as -21% and the Z score turned out to be 1.83.

For the molecule `O=C1CN(c2ccccc2NC(=O)c2ccc[nH]c2=O)CCN1`, the “% Inhibition” value is -15% and the Z score was 2.14.

Regarding `COc1ccc(/C=C/CN2CCC[C@H](CNC(=O)c3ccoc3)C2)cc1`, the “% Inhibition” value was -2% and the Z score turned out to be 0.32.

Take `CCN(CCNC(=O)c1nn(CC)c2c1COCC2)c1ccccc1`: the “% Inhibition” value is on record as 3% and the Z score is on record as -0.41.
